The values below come from patent US11420968B2 (priority 2018, dated 2022).

The subject of one assay is Molt-4 cells. The experiment in a line: cells. Particulars: Homo sapiens, MOLT-4, read-out: Celluclar activity (IC50, nM) Molt-4.
On to `CCc1ccccc1[C@@H]1CCCN1C1CC2(CCN(c3ccc(C(=O)NS(=O)(=O)c4ccc(NC[C@H]5COCCO5)c([N+](=O)[O-])c4)c(Oc4cnc5[nH]ccc5c4)c3)CC2)C1` [Example F40, N-((4-((((S)-1,4-dioxan-2-yl)methyl)amino)-3-nitrophenyl)sulfonyl)-2-((1H-pyrrolo[2,3-b]pyridin-5-yl)oxy)-4-(2-((S)-2-(2-ethylphenyl)pyrrolidin-1-yl)-7-azaspiro[3.5]nonan-7-yl)benzamide], for which the IC50 amounted to 2700 nM.
Still for that read-out and setting: to `O=C(NS(=O)(=O)c1ccc(NC[C@H]2COCCO2)c([N+](=O)[O-])c1)c1ccc(N2CCC3(CC2)CC(N2CCC[C@H]2c2ccccc2C2CC2)C3)cc1Oc1cnc2[nH]ccc2c1` [Example F37, N-((4-((((S)-1,4-dioxan-2-yl)methyl)amino)-3-nitrophenyl)sulfonyl)-2-((1H-pyrrolo[2,3b]pyridin-5-yl)oxy)-4-(2-((S)-2-(2-cyclopropylphenyl)pyrrolidin-1-yl)-7-azaspiro[3.5]nonan-7-yl) benzamide] belongs 1440 nM.

The same assay, now with this note: Homo sapiens, MOLT-4, read-out: Cellular activity (IC50, nM) Molt-4.
In the case of `O=C(NS(=O)(=O)c1ccc(NCC2CCOCC2)c([N+](=O)[O-])c1)c1ccc(-c2ccc(N3CCCC3c3ccccc3N3CCNCC3)cc2)cc1Oc1cnc2[nH]ccc2c1` (stereo not drawn) [Example A120, 3-((1H-pyrrolo[2,3-b]pyridin-5-yl)oxy)-N-((3-nitro-4-(((tetrahydro-2H-pyran-4-yl)methyl)amino)phenyl)sulfonyl)-4′-(2-(2-(piperazin-1-yl)phenyl)pyrrolidin-1-yl)-[1,1′-biphenyl]-4-carboxamide], the IC50 was above 10000 nM.
For `O=C(NS(=O)(=O)c1ccc(OCC2(F)CCN(C3COC3)CC2)c([N+](=O)[O-])c1)c1ccc(-c2ccc(N3CCC[C@H]3c3ccccc3C3CC3)cc2)cc1Oc1cnc2[nH]ccc2c1` [Example G97-S, (S)-3-((1H-pyrrolo[2,3-b]pyridin-5-yl)oxy)-4′-(2-(2-cyclopropylphenyl)pyrrolidin-1-yl)-N-((4-((4-fluoro-1-(oxetan-3-yl)piperidin-4-yl)methoxy)-3-nitrophenyl)sulfonyl)-[1,1′-biphenyl]-4-carboxamide], the IC50 stood at 3030 nM.
Same read-out and setting: to `O=C(NS(=O)(=O)c1ccc(OCC2(F)CCN(C3COC3)CC2)c([N+](=O)[O-])c1)c1ccc(-c2ccc(N3CCC[C@@H]3c3ccccc3C3CC3)cc2)cc1Oc1cnc2[nH]ccc2c1` [Example G97-R, (R)-3-((1H-pyrrolo[2,3-b]pyridin-5-yl)oxy)-4′-(2-(2-cyclopropylphenyl)pyrrolidin-1-yl)-N-((4-((4-fluoro-1-(oxetan-3-yl)piperidin-4-yl)methoxy)-3-nitrophenyl)sulfonyl)[1,1′-biphenyl]-4-carboxamide] belongs 434 nM; to `O=C(NS(=O)(=O)c1ccc(NC[C@H]2COCCO2)c([N+](=O)[O-])c1)c1ccc(C2=CCC(N3CCCC3c3ccccc3C3CC3)CC2)cc1Oc1cnc2[nH]ccc2c1` (stereo partly drawn) [Example G8, N-((4-((((S)-1,4-dioxan-2-yl)methyl)amino)-3-nitrophenyl)sulfonyl)-3-((1H-pyrrolo[2,3-b]pyridin-5-yl)oxy)-4′-(2-(2-cyclopropylphenyl)pyrrolidin-1-yl)-2′,3′,4′,5′-tetrahydro-[1,1′-biphenyl]-4-carboxamide], above 10000 nM.
On the same count and under the same terms, then `O=C(NS(=O)(=O)c1ccc(NCC2CCOCC2)c([N+](=O)[O-])c1)c1ccc(-c2ccc(N3CCCC3c3ccccc3C3CCNCC3)cc2)cc1Oc1cnc2[nH]ccc2c1` (stereo not drawn) [Example A99, 3-((1H-pyrrolo[2,3-b]pyridin-5-yl)oxy)-N-((3-nitro-4-(((tetrahydro-2H-pyran-4-yl)methyl)amino)phenyl)sulfonyl)-4′-(2-(2-(piperidin-4-yl)phenyl)pyrrolidin-1-yl)-[1,1′-biphenyl]-4-carboxamide], with above 10000 nM; and `CCc1ccccc1[C@@H]1CCCN1C1CC2(CCN(c3ccc(C(=O)NS(=O)(=O)c4ccc(NC[C@H]5COCCO5)c([N+](=O)[O-])c4)c(Oc4cnc5[nH]ccc5c4)c3)CC2)C1` [Example F40, N-((4-((((S)-1,4-dioxan-2-yl)methyl)amino)-3-nitrophenyl)sulfonyl)-2-((1H-pyrrolo[2,3-b]pyridin-5-yl)oxy)-4-(2-((S)-2-(2-ethylphenyl)pyrrolidin-1-yl)-7-azaspiro[3.5]nonan-7-yl)benzamide], with 2700 nM; and `CN1CCN(Cc2ccccc2[C@H]2CCCN2c2ccc(-c3ccc(C(=O)NS(=O)(=O)c4ccc(NCC5CCOCC5)c([N+](=O)[O-])c4)c(Oc4cnc5[nH]ccc5c4)c3)cc2)CC1` [Example A114, (R)-3-((1H-pyrrolo[2,3-b]pyridin-5-yl)oxy)-4′-(2-(2-((4-methylpiperazin-1-yl)methyl)phenyl)pyrrolidin-1-yl)-N-((3-nitro-4-(((tetrahydro-2H-pyran-4-yl)methyl)amino)phenyl)sulfonyl)-[1,1′-biphenyl]-4-carboxamide], with 589 nM.
Same read-out and setting: to `CC(=O)N(C)CCN1CCC(c2ccccc2[C@H]2CCCN2c2ccc(-c3ccc(C(=O)NS(=O)(=O)c4ccc(NCC5CCOCC5)c([N+](=O)[O-])c4)c(Oc4cnc5[nH]ccc5c4)c3)cc2)CC1` [Example A105, (R)-3-((1H-pyrrolo[2,3-b]pyridin-5-yl)oxy)-4′-(2-(2-(1-(2-(N-methylacetamido)ethyl)piperidin-4-yl)phenyl)pyrrolidin-1-yl)-N-((3-nitro-4-(((tetrahydro-2H-pyran-4-yl)methyl)amino)phenyl)sulfonyl)-[1,1′-biphenyl]-4-carboxamide] belongs 4000 nM.
For `O=C(NS(=O)(=O)c1ccc(NCC2CCOCC2)c([N+](=O)[O-])c1)c1ccc(N2CCC3(CCC(N4CCC[C@H]4c4ccccc4C4CC4)CC3)CC2)cc1Oc1cnc2[nH]ccc2c1` [Example F32, (S)-2-((1H-pyrrolo[2,3-b]pyridin-5-yl)oxy)-4-(9-(2-(2-cyclopropylphenyl)pyrrolidin-1-yl)-3-azaspiro[5.5]undecan-3-yl)-N-((3-nitro-4-(((tetrahydro-2H-pyran-4-yl)methyl)amino)phenyl)sulfonyl)benzamide], the IC50 was 7040 nM.
Still for that read-out and setting: to `CN(C)CCNc1ccc(C2CC2)c(C2CCCN2C2CC=C(c3ccc(C(=O)NS(=O)(=O)c4ccc(NCC5CCOCC5)c([N+](=O)[O-])c4)c(Oc4cnc5[nH]ccc5c4)c3)CC2)c1` (stereo not drawn) [Example C172, 3-((1H-pyrrolo[2,3-b]pyridin-5-yl)oxy)-4′-(2-(2-cyclopropyl-5-((2-(dimethylamino)ethyl)amino)phenyl)pyrrolidin-1-yl)-N-((3-nitro-4-(((tetrahydro-2H-pyran-4-yl)methyl)amino)phenyl)sulfonyl)-2′,3′,4′,5′-tetrahydro-[1,1′-biphenyl]-4-carboxamide] belongs above 10000 nM; to `CC1(O)CCC(CNc2ccc(S(=O)(=O)NC(=O)c3ccc(C4=CCC(N5CCCC5c5ccccc5C5CC5)CC4)cc3Oc3cnc4[nH]ccc4c3)cc2[N+](=O)[O-])CC1` (stereo not drawn) [Example G24b, (trans- or cis-)-3-((1H-pyrrolo[2,3-b]pyridin-5-yl)oxy)-4′-(2-(2 cyclopropylphenyl)pyrrolidin-1-yl)-N-((4-(((4-hydroxy-4-methylcyclohexyl)methyl)amino)-3-nitrophenyl)sulfonyl)-2′,3′,4′,5′-tetrahydro-[1,1′-biphenyl]-4-carboxamide], above 10000 nM; to `O=C(NS(=O)(=O)c1ccc(NC[C@H]2COCCO2)c([N+](=O)[O-])c1)c1ccc(C2=CCC(N3CCC[C@H]3c3ccccc3C3CC3)CC2)cc1Oc1cnc2[nH]ccc2c1` (stereo partly drawn) [Example G8-S, N-((4-((((S)-1,4-dioxan-2-yl)methyl)amino)-3-nitrophenyl)sulfonyl)-3-((1H-pyrrolo[2,3-b]pyridin-5-yl)oxy)-4′-((S)-2-(2-cyclopropylphenyl)pyrrolidin-1-yl)-2′,3′,4′,5′-tetrahydro-[1,1′-biphenyl]-4-carboxamide], 2460 nM.
Same read-out and setting: to `O=C(NS(=O)(=O)c1ccc(NC[C@H]2COCCO2)c([N+](=O)[O-])c1)c1ccc(N2CCC3(CC2)CC(N2CCC[C@H]2c2ccccc2C2CC2)C3)cc1Oc1cnc2[nH]ccc2c1` [Example F37, N-((4-((((S)-1,4-dioxan-2-yl)methyl)amino)-3-nitrophenyl)sulfonyl)-2-((1H-pyrrolo[2,3b]pyridin-5-yl)oxy)-4-(2-((S)-2-(2-cyclopropylphenyl)pyrrolidin-1-yl)-7-azaspiro[3.5]nonan-7-yl) benzamide] belongs 1440 nM.

Usually IC50 stands for the point on the concentration scale where inhibition reaches its midpoint.
